{
  "source": "PubChem BioAssay AID651820",
  "about": "(National Center for Advancing Translational Sciences (NCATS), 2012)",
  "note": "In all, about 340,000 compounds went through this assay and about 12,000 (3.5%) were called active. Inconclusive means that the source gave no clear call. Such entries were picked first, then a sample of the others. Calls come from the whole dose curve; as a rule, active = well fitted inhibition curve with a large enough effect; inconclusive = small, poorly fitted or top-dose-only effect, or another doubt; inactive = no such curve, though single readings can be large or run the other way. Potencies of inconclusive entries are left out as doubtful fits. Potency is the fitted concentration of half-maximal effect; tags give direction and shape of the fitted curve.",
  "data": [
    {"test": "qHTS Assay for Inhibitors of Hepatitis C Virus (HCV)", "conditions": "Huh7.5.1 HCVcc-Cre (HCVcc is cell-culture hepatitis C virus) infection, luciferase reporter, 44 h; series mostly up to 41.8 µM", "summary_of_the_method": "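Whole-lifecycle infectious HCVcc-Cre system; cells 1,000/well, compound then virus (~0.5 moi) added 4 h after plating, 44 h culture. Luciferase read 15 sec following 15 min substrate incubation, room temp.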", "values": [
      {"smiles": "Cc1cccc(NC(=S)N2CCN(c3cc(C)ccc3C)CC2)c1", "Potency": "inactive"},
      {"smiles": "Cc1cc(C)n(-c2cc(N3CCN(C(=O)c4ccc(C(C)(C)C)cc4)CC3)ccc2[N+](=O)[O-])n1", "Potency": "inconclusive [inhibitor, single point]"},
      {"smiles": "O=C(CCNC(=O)c1ccccc1Cl)NCCCSc1ccccc1", "Potency": "inactive"},
      {"smiles": "Cn1c(SCC(=O)N/N=C/c2ccc([N+](=O)[O-])s2)nnc1-c1ccc(Cl)cc1", "Potency": "inconclusive [inhibitor, single point]"},
      {"smiles": "CC1CCN(S(=O)(=O)c2cccc(-c3cn4cc(Cl)ccc4n3)c2)CC1", "Potency": "inconclusive [inhibitor, single point]"},
      {"smiles": "CN(C)S(=O)(=O)c1cccc(COC(=O)CCNC(=O)c2ccc([N+](=O)[O-])cc2)c1", "Potency": "inactive"},
      {"smiles": "O=C(NCCO)c1ccc2[nH]c3c(c2c1)CCCC3", "Potency": "inconclusive [inhibitor, partial curve, poor fit]"},
      {"smiles": "O=C(N/N=C/c1ccco1)C1CC1(c1ccccc1)c1ccccc1", "note": "(stereo not given)", "Potency": "inconclusive [inhibitor, single point]"},
      {"smiles": "CCN(CCNC(=O)C1CCN(c2nnc(-n3cccc3)s2)CC1)c1ccccc1", "Potency": "inconclusive [inhibitor, single point]"},
      {"smiles": "O=C(NCCc1ccc(Cl)cc1)Nc1cccc(Cl)c1", "Potency": "inconclusive [inhibitor, single point]"},
      {"smiles": "CNc1oc(-c2ccccc2Cl)nc1C#N", "Potency": "inconclusive [inhibitor, single point]"},
      {"smiles": "O=C(Nc1ccncc1)c1ccc(-c2ccccc2)cc1", "Potency": "active: 10 µM"},
      {"smiles": "CCOc1ccccc1C(=O)Oc1ccc2ccc(=O)oc2c1", "Potency": "inactive"},
      {"smiles": "COc1cccc(CN(C(=O)Cn2nnc(-c3ccccc3F)n2)C(C(=O)NC(C)(C)C)c2ccncc2)c1", "note": "(stereo not given)", "Potency": "inconclusive [inhibitor, single point]"},
      {"smiles": "COc1ccccc1-c1cc(C(F)(F)F)nc(S(=O)(=O)CCCC(=O)N2CCOCC2)n1", "Potency": "inconclusive [inhibitor, single point]"},
      {"smiles": "CCOc1cc(C)c(S(=O)(=O)N2CCCCC2)cc1C", "Potency": "inconclusive [inhibitor, single point]"},
      {"smiles": "CCS(=O)(=O)N1CCC(c2nc3ccccc3[nH]2)CC1", "Potency": "inactive"},
      {"smiles": "C=CCC(O)(CCN1CCCCC1)c1ccccc1", "note": "(stereo not given)", "Potency": "inactive"},
      {"smiles": "COc1ccc(-c2coc3cc4oc(=O)cc(-c5ccccc5)c4cc23)cc1F", "Potency": "inconclusive [inhibitor, single point]"},
      {"smiles": "Oc1ccc(/C=N/Nc2ccnc3cc(Cl)ccc23)cc1O", "Potency": "inconclusive [inhibitor, partial curve]"},
      {"smiles": "CC(OC(=O)C1CC(=O)N(Cc2ccco2)C1)C(=O)Nc1cccc(C#N)c1", "note": "(stereo not given)", "Potency": "inactive"},
      {"smiles": "Cc1ccc(OCC(=O)Nc2ccccc2-c2ccccc2NC(=O)COc2ccc(C)cc2)cc1", "Potency": "inconclusive [inhibitor, partial curve]"},
      {"smiles": "COc1ccc(-c2cc(C(=O)N3CCCC(C(F)(F)F)C3)c3ccccc3n2)cc1OC", "note": "(stereo not given)", "Potency": "inconclusive [inhibitor, full curve]"},
      {"smiles": "CCOc1ccc(/C=N/OCC(=O)NCc2ccc3c(c2)OCO3)cc1OC", "Potency": "inconclusive [inhibitor, single point]"},
      {"smiles": "CCOC(=O)N1CCC(NC(=O)CS(=O)(=O)Cc2nc(-c3ccc(C)cc3)oc2C)CC1", "Potency": "inconclusive [inhibitor, partial curve]"},
      {"smiles": "Cc1ccccc1C(=O)NC(=S)Nc1ccc(N2CCN(C(=O)c3ccccc3)CC2)cc1", "Potency": "active: 11.2 µM"},
      {"smiles": "Cc1csc(NC(=O)c2cc3c(s2)CCCC3)n1", "Potency": "inconclusive [inhibitor, partial curve]"},
      {"smiles": "O=C(NCCCN1CCCC1=O)c1cccs1", "Potency": "inactive"},
      {"smiles": "COc1ccc(S(=O)(=O)Nc2ccc(Cl)cn2)c(C)c1C", "Potency": "inactive"},
      {"smiles": "COC(=O)c1ccc(C(=O)OC)c(NC(=O)C2CC(=O)N(C3CCCC3)C2)c1", "note": "(stereo not given)", "Potency": "inconclusive [inhibitor, single point]"},
      {"smiles": "Cc1ccc(C(=O)/C=C2\\NCC(C)NC2=O)cc1", "note": "(stereo not given)", "Potency": "inactive"},
      {"smiles": "Cc1ccc2ccccc2c1CSc1nc(N)nc2c1ncn2CC(C)C", "Potency": "inconclusive [inhibitor, single point]"},
      {"smiles": "C/C=C/c1ccc(OCC(=O)Nc2ccc(C(N)=O)cc2)c(OC)c1", "Potency": "inconclusive [inhibitor, single point]"},
      {"smiles": "CC(Oc1ccccc1)C(=O)Nc1cccc(NC(=O)c2ccco2)c1", "note": "(stereo not given)", "Potency": "inconclusive [inhibitor, single point]"},
      {"smiles": "O=C1CC(N2CCN(c3ccccc3Cl)CC2)C(=O)N1c1ccccc1", "note": "(stereo not given)", "Potency": "inactive"},
      {"smiles": "COc1ccc(CNC(=O)c2cnn3c(C(F)F)cc(C)nc23)cc1", "Potency": "inconclusive [inhibitor, single point]"},
      {"smiles": "COC(=O)C(C)Oc1ccc(-c2nccc(-c3cccs3)n2)cc1", "note": "(stereo not given)", "Potency": "inconclusive [inhibitor, partial curve]"},
      {"smiles": "N#CCc1ccc(Oc2ncccn2)cc1", "Potency": "inactive"},
      {"smiles": "CC1CCN(CCNC(=O)CCS(=O)(=O)c2ccc(Br)cc2)CC1", "Potency": "inconclusive [inhibitor, partial curve]"},
      {"smiles": "Cc1cccc(NC(=O)CSc2nc3c(oc4ccccc43)c(=O)n2-c2ccccc2)c1", "Potency": "inconclusive [inhibitor, single point]"},
      {"smiles": "O=[N+]([O-])c1ccc2c3n([n+]([O-])c2c1)CCN=C3c1ccc(Cl)cc1", "Potency": "inconclusive [inhibitor, partial curve]"},
      {"smiles": "COc1ccc(C(=O)Nc2cccc(S(=O)(=O)NCc3ccco3)c2)cc1", "Potency": "inconclusive [inhibitor, partial curve]"},
      {"smiles": "COc1ccc(OC)c(CN2CCN(C(=O)c3ccc(S(=O)(=O)Nc4ccccc4F)cc3)CC2)c1", "Potency": "inconclusive [inhibitor, partial curve]"},
      {"smiles": "O=C(c1ccc(F)cc1)C1CCN(C(=O)Nc2ccc(F)cc2)CC1", "Potency": "inconclusive [inhibitor, partial curve]"},
      {"smiles": "Cc1cccc(NC(=O)c2ccc3c(Cl)c4c(nc3c2)CCCC4)n1", "Potency": "inconclusive [inhibitor, full curve, poor fit]"},
      {"smiles": "Cc1ccc(NC(=O)CSc2ccccc2NC(=O)c2ccccc2Cl)cc1Cl", "Potency": "inconclusive [inhibitor, single point]"},
      {"smiles": "CCCCN(C(=O)c1cccc2c(=O)c(C)c(-c3ccccc3)oc12)c1ccccc1", "Potency": "inconclusive [inhibitor, single point]"},
      {"smiles": "CCCOc1ccccc1N/C(=N/c1nc(C)cc(C)n1)NC(=O)Nc1ccc(Cl)cc1", "Potency": "inconclusive [inhibitor, single point]"},
      {"smiles": "CCCn1c(SCC(=O)NNC(=O)c2ccccc2)nnc1-c1cccnc1", "Potency": "inactive"},
      {"smiles": "COc1ccc(C2c3c(ccc4ccccc34)Oc3ncn4nc(-c5ccco5)nc4c32)cc1", "note": "(stereo not given)", "Potency": "inconclusive [inhibitor, single point]"},
      {"smiles": "O=C(Nc1ccccc1C(=O)N1CCN(Cc2ccccc2)CC1)c1ccccn1", "Potency": "inactive"},
      {"smiles": "CCN1/C(=C/c2ccc3cc(C)ccc3[n+]2CC)Sc2cc(C)c(C)cc21", "Potency": "active: 1.12 µM"},
      {"smiles": "COc1cc(C2Nc3ccccc3C(=O)N2c2ccc(Cl)cc2)c(Cl)cc1OCC(=O)O", "note": "(stereo not given)", "Potency": "inactive"},
      {"smiles": "Cc1c(/C=N\\NC(=O)C2COc3ccc(C(C)(C)C)cc3O2)c2ccccc2n1C", "note": "(stereo not given)", "Potency": "inconclusive [inhibitor, single point]"},
      {"smiles": "COc1ccc(/C=C/C(=O)Nc2cccc(N3CCOCC3)c2)cc1OC", "Potency": "inconclusive [inhibitor, partial curve]"},
      {"smiles": "COc1ccc(-n2c(CN3CCN(c4ccccn4)CC3)nc3ccc([N+](=O)[O-])cc3c2=O)c(OC)c1", "Potency": "inconclusive [inhibitor, partial curve, poor fit]"},
      {"smiles": "Cc1sc2nc(CN3CCCC3)nc(N3CCN(S(=O)(=O)c4ccccc4)CC3)c2c1C", "Potency": "inactive"},
      {"smiles": "CC(=O)c1c(C)[nH]c(C(=O)OCC(=O)NCCc2ccc(Cl)cc2)c1C", "Potency": "active: 11.2 µM"},
      {"smiles": "O=C1c2[nH]nc(-c3ccccc3O)c2C(c2ccccc2F)N1Cc1ccco1", "note": "(stereo not given)", "Potency": "inconclusive [inhibitor, partial curve]"},
      {"smiles": "Brc1ccc(-c2nnc(-c3cccc(Br)c3)o2)cc1", "Potency": "inactive"},
      {"smiles": "COC12CCC3(CC1C(C)(O)C(C)(C)C)[C@H]1Cc4ccc(OC5OC(C(=O)O)[C@@H](O)C(O)[C@H]5O)c5c4[C@@]3(CCN1CC1CC1)C2O5", "note": "(stereo not given in full)", "Potency": "inconclusive [inhibitor, single point]"},
      {"smiles": "COc1cccc(/C=N/NC(=O)c2cc3c(OC)ccc(OC)c3[nH]2)c1O", "Potency": "active: 2.51 µM"},
      {"smiles": "CC(NCC(=O)NCC(=O)Nc1ccc(F)cc1)c1cccc(C(F)(F)F)c1", "note": "(stereo not given)", "Potency": "inactive"},
      {"smiles": "CN(C)c1ccc(Nc2nc(N)c([N+](=O)[O-])c(N3CCOCC3)n2)cc1", "Potency": "inconclusive [inhibitor, single point]"},
      {"smiles": "CNc1nc(C)c([N+](=O)[O-])c(Nc2ccc(OC)cc2)n1", "Potency": "inactive"},
      {"smiles": "CC1(C)CC(=O)C=C(Nc2ccc(Cl)c(Br)c2)C1", "Potency": "inactive"},
      {"smiles": "N#Cc1ccc(NC(=O)C2=COCCO2)cc1", "Potency": "inactive"},
      {"smiles": "COc1cccc(OCCOCC(O)CN2CCN(Cc3ccc(Cl)cc3)CC2)c1", "note": "(stereo not given)", "Potency": "inconclusive [inhibitor, partial curve]"},
      {"smiles": "O=C(CCc1c[nH]c2ccccc12)N/N=C/c1ccc2c(c1)OCO2", "Potency": "active: 12.6 µM"},
      {"smiles": "CCn1nccc1C(=O)Nc1ccc(Cl)cc1Cl", "Potency": "inconclusive [inhibitor, full curve, poor fit]"}
    ]}
  ]
}
